# Measurements reported in the supplement of paper PMC8728848.
# The list shows a part of the results.
# B1: MGL1 (Mus musculus), P49300 (protein)
# chain: MIYENLQNSRIEEKTQEPGKAPSQSFLWRILSWTHLLLFSLGLSLLLLVVVSVIGSQNSQLRRDLGTLRATLDNTTSKIKAEFQSLDSRADSFEKGISSLKVDVEDHRQELQAGRDLSQKVTSLESTVEKREQALKTDLSDLTDHVQQLRKDLKALTCQLANLKNNGSEVACCPLHWTEHEGSCYWFSESEKSWPEADKYCRLENSHLVVVNSLEEQNFLQNRLANVVSWIGLTDQNGPWRWVDGTDFEKGFKNWAPLQPDNWFGHGLGGGEDCAHITTGGPWNDDVCQRTFRWICEMKLAKES
# Key:
# Experiment in all cases: glycan array binding signal (z-score within array); higher = stronger binding
# Conditions in all cases: glycan notation: IUPAC condensed, linker removed
# [1] = target: Fuc(a1-2)[Gal(a1-3)]Gal(b1-3)GlcNAc(b1-3)GalNAc
# Method in brief: (§1)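 From the Consortium for Functional Glycomics database, 3228 arrays were curated, keeping only those whose protein sequence was available. Binding is given as a within-array Z-score averaged across arrays sharing a protein sequence and across linkers. Negative Z-scores can be read as non-binding.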
# [2] = target: Fuc(a1-2)[Gal(a1-3)]Gal(b1-3)GlcNAc(b1-6)GalNAc
# Method in brief: as §1
# [3] = target: Fuc(a1-2)[Gal(a1-3)]Gal(b1-4)Glc
# Method in brief: as §1
# [4] = target: Fuc(a1-2)[Gal(a1-3)]Gal(b1-4)GlcNAc
# Method in brief: as §1
# [5] = target: Fuc(a1-2)[Gal(a1-3)]Gal(b1-4)GlcNAc(b1-2)Man
# Method in brief: as §1
# [6] = target: Fuc(a1-2)[Gal(a1-3)]Gal(b1-4)GlcNAc(b1-2)Man(a1-3)[Fuc(a1-2)[Gal(a1-3)]Gal(b1-4)GlcNAc(b1-2)Man(a1-6)]Man(b1-4)GlcNAc(b1-4)GlcNAc
# Method in brief: as §1
# [7] = target: Fuc(a1-2)[Gal(a1-3)]Gal(b1-4)GlcNAc(b1-2)Man(a1-3)[Fuc(a1-2)[Gal(a1-3)]Gal(b1-4)GlcNAc(b1-2)Man(a1-6)]Man(b1-4)GlcNAc(b1-4)[Fuc(a1-6)]GlcNAc
# Method in brief: as §1
# [8] = target: Fuc(a1-2)[Gal(a1-3)]Gal(b1-4)GlcNAc(b1-3)GalNAc
# Method in brief: as §1
# [9] = target: Fuc(a1-2)[Gal(a1-3)]Gal(b1-4)GlcNAc(b1-3)[Fuc(a1-2)[Gal(a1-3)]Gal(b1-4)GlcNAc(b1-6)]GalNAc
# Method in brief: as §1
# [10] = target: Fuc(a1-2)[Gal(a1-3)]Gal(b1-4)GlcNAc(b1-6)GalNAc
# Method in brief: as §1
# [11] = target: Fuc(a1-2)[Gal(a1-3)]Gal(b1-4)[Fuc(a1-3)]Glc
# Method in brief: as §1
# [12] = target: Fuc(a1-2)[Gal(a1-3)]Gal(b1-4)[Fuc(a1-3)]GlcNAc
# Method in brief: as §1
# [13] = target: Fuc(a1-2)[Gal(a1-3)]Gal(b1-4)[Fuc(a1-3)]GlcNAc(b1-3)GalNAc
# Method in brief: as §1
# [14] = target: Fuc(a1-2)[Gal(a1-4)]Gal(b1-4)GalNAc
# Method in brief: as §1
# [15] = target: Fuc(a1-2)[Gal(a1-4)]Gal(b1-4)GlcNAc
# Method in brief: as §1
# [16] = target: Fuc(a1-2)[GalNAc(a1-3)]Gal
# Method in brief: as §1
# [17] = target: Fuc(a1-2)[GalNAc(a1-3)]Gal(b1-3)GalNAc(a1-3)[Fuc(a1-2)]Gal(b1-4)GlcNAc
# Method in brief: as §1
# [18] = target: Fuc(a1-2)[GalNAc(a1-3)]Gal(b1-3)GalNAc(b1-3)Gal(a1-4)Gal(b1-4)Glc
# Method in brief: as §1
# [19] = target: Fuc(a1-2)[GalNAc(a1-3)]Gal(b1-3)GlcNAc
# Method in brief: as §1
# [20] = target: Fuc(a1-2)[GalNAc(a1-3)]Gal(b1-3)GlcNAc(b1-2)Man(a1-3)[Fuc(a1-2)[GalNAc(a1-3)]Gal(b1-3)GlcNAc(b1-2)Man(a1-6)]Man(b1-4)GlcNAc(b1-4)GlcNAc
# Method in brief: as §1
# [21] = target: Fuc(a1-2)[GalNAc(a1-3)]Gal(b1-3)GlcNAc(b1-2)Man(a1-3)[Fuc(a1-2)[GalNAc(a1-3)]Gal(b1-3)GlcNAc(b1-2)Man(a1-6)]Man(b1-4)GlcNAc(b1-4)[Fuc(a1-6)]GlcNAc
# Method in brief: as §1
# [22] = target: Fuc(a1-2)[GalNAc(a1-3)]Gal(b1-3)GlcNAc(b1-3)GalNAc
# Method in brief: as §1
# [23] = target: Fuc(a1-2)[GalNAc(a1-3)]Gal(b1-3)GlcNAc(b1-6)GalNAc
# Method in brief: as §1
# [24] = target: Fuc(a1-2)[GalNAc(a1-3)]Gal(b1-4)Glc
# Method in brief: as §1
# [25] = target: Fuc(a1-2)[GalNAc(a1-3)]Gal(b1-4)GlcNAc
# Method in brief: as §1
# [26] = target: Fuc(a1-2)[GalNAc(a1-3)]Gal(b1-4)GlcNAc(b1-2)Man
# Method in brief: as §1
# [27] = target: Fuc(a1-2)[GalNAc(a1-3)]Gal(b1-4)GlcNAc(b1-2)Man(a1-3)[Fuc(a1-2)[GalNAc(a1-3)]Gal(b1-4)GlcNAc(b1-2)Man(a1-6)]Man(b1-4)GlcNAc(b1-4)GlcNAc
# Method in brief: as §1
# [28] = target: Fuc(a1-2)[GalNAc(a1-3)]Gal(b1-4)GlcNAc(b1-2)Man(a1-3)[Fuc(a1-2)[GalNAc(a1-3)]Gal(b1-4)GlcNAc(b1-2)Man(a1-6)]Man(b1-4)GlcNAc(b1-4)[Fuc(a1-6)]GlcNAc
# Method in brief: as §1
# [29] = target: Fuc(a1-2)[GalNAc(a1-3)]Gal(b1-4)GlcNAc(b1-3)Gal(b1-4)GlcNAc
# Method in brief: as §1
# [30] = target: Fuc(a1-2)[GalNAc(a1-3)]Gal(b1-4)GlcNAc(b1-3)Gal(b1-4)GlcNAc(b1-3)Gal(b1-4)GlcNAc
# Method in brief: as §1
binder,measurement,setting,value
B1,glycan array binding signal (z-score),[1],-0.593
same,glycan array binding signal (z-score),[2],-0.297
same,glycan array binding signal (z-score),[3],-0.017
same,glycan array binding signal (z-score),[4],-0.021
same,glycan array binding signal (z-score),[5],-0.708
same,glycan array binding signal (z-score),[6],-0.615
same,glycan array binding signal (z-score),[7],-1.16
same,glycan array binding signal (z-score),[8],-0.521
same,glycan array binding signal (z-score),[9],-0.466
same,glycan array binding signal (z-score),[10],-0.784
same,glycan array binding signal (z-score),[11],-0.824
same,glycan array binding signal (z-score),[12],-0.593
same,glycan array binding signal (z-score),[13],-0.761
same,glycan array binding signal (z-score),[14],-0.134
same,glycan array binding signal (z-score),[15],1.45
same,glycan array binding signal (z-score),[16],-0.162
same,glycan array binding signal (z-score),[17],-0.3
same,glycan array binding signal (z-score),[18],-0.695
same,glycan array binding signal (z-score),[19],-0.793
same,glycan array binding signal (z-score),[20],-0.274
same,glycan array binding signal (z-score),[21],-0.766
same,glycan array binding signal (z-score),[22],-0.617
same,glycan array binding signal (z-score),[23],-0.413
same,glycan array binding signal (z-score),[24],-0.262
same,glycan array binding signal (z-score),[25],0.264
same,glycan array binding signal (z-score),[26],-0.538
same,glycan array binding signal (z-score),[27],-0.752
same,glycan array binding signal (z-score),[28],0.108
same,glycan array binding signal (z-score),[29],-0.996
same,glycan array binding signal (z-score),[30],-0.048
